Test results from the supplement of paper PMC12217912.
The other results are listed elsewhere or left out. Sequences were assembled here from the parent chain. Values near 0.05 are background.

B1: TEV protease; numbered along this chain (parent)
chain: MGESLFKGPRDYNPISSSICHLTNESDGHTTSLYGIGFGPFIITNKHLFRRNNGTLVVQSLHGVFKVKDTTTLQQHLVDGRDMIIIRMPKDFPPFPQKLKFREPQREERICLVTTNFQTKSMSSMVSDTSCTFPSGDGIFWKHWIQTKDGQCGSPLVSTRDGFIVGIHSASNFTNTNNYFTSVPKNFMELLTNQEAQQWVSGWRLNADSVLWGGHKVFMVKPEEPFQPVKEATQL

Variants of: B1
Assay: raw area under fraction-flipped curve 0-4 h after induction (AUC4h, not background-subtracted), DNA-recorder readout of cleavage of the substrate (dimensionless); higher = more cleavage of the substrate by the protease variant
Details: temperature: 34 °C; time window: 0-4 h after rhamnose induction
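Also: Bxb1 expression induced with 0.2% (w/v) L-rhamnose at OD600 near 0.5, cultures sampled hourly, flipped fraction per protease–substrate barcode pair counted by paired-end Illumina sequencing.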

Variant	area with substrate ENAYFQS	area with substrate ENCYFQS	area with substrate ENDYFQS	area with substrate ENEYFQS	area with substrate ENHYFQS	area with substrate ENSYFQS	area with substrate ENTYFQS	area with substrate ENFYFQS	area with substrate ENGYFQS	area with substrate ENIYFQS
MGESLFKGPRDYNPISSSICHLTNESDGHTTSLYGIGFGPFIITNKHLFRRNNGTLVVQSLHGVFKVKDTTTLQQHLVDGRDMIIIRMPKDFPPFPQKLKFREPQREERICLVTTNFQTKSMSSMVSDTSCTFPSGDGIFWKHWIQTKDGQCGSPLVSTRDGFIVGIHSASNFTNTNNYFTSVPKNFMELLTNQEAQQWVSGWPLNADSVLWGGHKVFMVKPEEPFQPVKEATQL [R204P]	0.0707	0.06	0.0734	0.0552	0.0682	0.0623	0.0681			
MGESLFKGPRDYNPISSSICHLTNESDGHTTSLYGIGFGPFIITNKHLFRRNNGTLVVQSLHGVFKVKDTTTLQQHLVDGRDMIIIRMPKDFPPFPQKLKFREPQREERICLVTTNFQTKSMSSMVSDTSCTFPSGDGIFWKHWIQTKDGQCGSPLVSTRDGFIVGIHSASNFTNTNNYFTSVPKNFMELLTNQEAQQWVSGWRSNADSVLWGGHKVFMVKPEEPFQPVKEATQL [L205S]	0.0432		0.0395	0.0711				0.0765		
MGESLFKGPRDYNPISSSICHLTNESDGHTTSLYGIGFGPFIITNKHLFRRNNGTLVVQSLHGVFKVKDTTTLQQHLVDGRDMIIIRMPKDFPPFPQKLKFREPQREERICLVTTNFQTKSMSSMVSDTSCTFPSGDGIFWKHWIQTKDGQCGSPLVSTRDGFIVGIHSASNFTNTNNYFTSVPKNFMELLTNQEAQQWVSGWRLCADSVLWGGHKVFMVKPEEPFQPVKEATQL [N206C]	0.077	0.0501		0.0622		0.055	0.0575		0.0653	0.101
MGESLFKGPRDYNPISSSICHLTNESDGHTTSLYGIGFGPFIITNKHLFRRNNGTLVVQSLHGVFKVKDTTTLQQHLVDGRDMIIIRMPKDFPPFPQKLKFREPQREERICLVTTNFQTKSMSSMVSDTSCTFPSGDGIFWKHWIQTKDGQCGSPLVSTRDGFIVGIHSASNFTNTNNYFTSVPKNFMELLTNQEAQQWVSGWRLRADSVLWGGHKVFMVKPEEPFQPVKEATQL [N206R]	0.0621		0.0682	0.05	0.0569	0.053		0.0564	0.0505	0.112
MGESLFKGPRDYNPISSSICHLTNESDGHTTSLYGIGFGPFIITNKHLFRRNNGTLVVQSLHGVFKVKDTTTLQQHLVDGRDMIIIRMPKDFPPFPQKLKFREPQREERICLVTTNFQTKSMSSMVSDTSCTFPSGDGIFWKHWIQTKDGQCGSPLVSTRDGFIVGIHSASNFTNTNNYFTSVPKNFMELLTNQEAQQWVSGWRLNADGVLWGGHKVFMVKPEEPFQPVKEATQL [S209G]	0.0521	0.054				0.0761		0.0797		
MGESLFKGPRDYNPISSSICHLTNESDGHTTSLYGIGFGPFIITNKHLFRRNNGTLVVQSLHGVFKVKDTTTLQQHLVDGRDMIIIRMPKDFPPFPQKLKFREPQREERICLVTTNFQTKSMSSMVSDTSCTFPSGDGIFWKHWIQTKDGQCGSPLVSTRDGFIVGIHSASNFTNTNNYFTSVPKNFMELLTNQEAQQWVSGWRLNADKVLWGGHKVFMVKPEEPFQPVKEATQL [S209K]	0.0456		0.0808	0.06		0.0692			0.0731	
MGESLFKGPRDYNPISSSICHLTNESDGHTTSLYGIGFGPFIITNKHLFRRNNGTLVVQSLHGVFKVKDTTTLQQHLVDGRDMIIIRMPKDFPPFPQKLKFREPQREERICLVTTNFQTKSMSSMVSDTSCTFPSGDGIFWKHWIQTKDGQCGSPLVSTRDGFIVGIHSASNFTNTNNYFTSVPKNFMELLTNQEAQQWVSGWRLNADNVLWGGHKVFMVKPEEPFQPVKEATQL [S209N]	0.0598	0.0625	0.049	0.0701	0.0605	0.0467	0.0407	0.0676	0.0564	
MGESLFKGPRDYNPISSSICHLTNESDGHTTSLYGIGFGPFIITNKHLFRRNNGTLVVQSLHGVFKVKDTTTLQQHLVDGRDMIIIRMPKDFPPFPQKLKFREPQREERICLVTTNFQTKSMSSMVSDTSCTFPSGDGIFWKHWIQTKDGQCGSPLVSTRDGFIVGIHSASNFTNTNNYFTSVPKNFMELLTNQEAQQWVSGWRLNADRVLWGGHKVFMVKPEEPFQPVKEATQL [S209R]	0.0659	0.0658	0.0619		0.0454			0.0581		
MGESLFKGPRDYNPISSSICHLTNESDGHTTSLYGIGFGPFIITNKHLFRRNNGTLVVQSLHGVFKVKDTTTLQQHLVDGRDMIIIRMPKDFPPFPQKLKFREPQREERICLVTTNFQTKSMSSMVSDTSCTFPSGDGIFWKHWIQTKDGQCGSPLVSTRDGFIVGIHSASNFTNTNNYFTSVPKNFMELLTNQEAQQWVSGWRLNADSELWGGHKVFMVKPEEPFQPVKEATQL [V210E]	0.0498					0.0675	0.0462			
MGESLFKGPRDYNPISSSICHLTNESDGHTTSLYGIGFGPFIITNKHLFRRNNGTLVVQSLHGVFKVKDTTTLQQHLVDGRDMIIIRMPKDFPPFPQKLKFREPQREERICLVTTNFQTKSMSSMVSDTSCTFPSGDGIFWKHWIQTKDGQCGSPLVSTRDGFIVGIHSASNFTNTNNYFTSVPKNFMELLTNQEAQQWVSGWRLNADSPLWGGHKVFMVKPEEPFQPVKEATQL [V210P]	0.0578	0.05	0.0507	0.0539		0.0667	0.0803	0.0615	0.0528	

Same assay, conditions: temperature: 34 °C; time window: 0-4 h after rhamnose induction

Variant	area with substrate ENKYFQS	area with substrate ENMYFQS	area with substrate ENNYFQS	area with substrate ENPYFQS	area with substrate ENQYFQS	area with substrate ENRYFQS	area with substrate ENVYFQS	area with substrate ENYYFQS	area with substrate ENWYFQS
MGESLFKGPRDYNPISSSICHLTNESDGHTTSLYGIGFGPFIITNKHLFRRNNGTLVVQSLHGVFKVKDTTTLQQHLVDGRDMIIIRMPKDFPPFPQKLKFREPQREERICLVTTNFQTKSMSSMVSDTSCTFPSGDGIFWKHWIQTKDGQCGSPLVSTRDGFIVGIHSASNFTNTNNYFTSVPKNFMELLTNQEAQQWVSGWRLCADSVLWGGHKVFMVKPEEPFQPVKEATQL [N206C]	0.0643	0.0701	0.0632	0.0486	0.0626	0.054	0.0739	0.0441	
MGESLFKGPRDYNPISSSICHLTNESDGHTTSLYGIGFGPFIITNKHLFRRNNGTLVVQSLHGVFKVKDTTTLQQHLVDGRDMIIIRMPKDFPPFPQKLKFREPQREERICLVTTNFQTKSMSSMVSDTSCTFPSGDGIFWKHWIQTKDGQCGSPLVSTRDGFIVGIHSASNFTNTNNYFTSVPKNFMELLTNQEAQQWVSGWRLRADSVLWGGHKVFMVKPEEPFQPVKEATQL [N206R]	0.0625		0.0604		0.064	0.0594			0.003
MGESLFKGPRDYNPISSSICHLTNESDGHTTSLYGIGFGPFIITNKHLFRRNNGTLVVQSLHGVFKVKDTTTLQQHLVDGRDMIIIRMPKDFPPFPQKLKFREPQREERICLVTTNFQTKSMSSMVSDTSCTFPSGDGIFWKHWIQTKDGQCGSPLVSTRDGFIVGIHSASNFTNTNNYFTSVPKNFMELLTNQEAQQWVSGWRLNADGVLWGGHKVFMVKPEEPFQPVKEATQL [S209G]	0.0549						0.0325	0.0585	
MGESLFKGPRDYNPISSSICHLTNESDGHTTSLYGIGFGPFIITNKHLFRRNNGTLVVQSLHGVFKVKDTTTLQQHLVDGRDMIIIRMPKDFPPFPQKLKFREPQREERICLVTTNFQTKSMSSMVSDTSCTFPSGDGIFWKHWIQTKDGQCGSPLVSTRDGFIVGIHSASNFTNTNNYFTSVPKNFMELLTNQEAQQWVSGWRLNADKVLWGGHKVFMVKPEEPFQPVKEATQL [S209K]	0.0557	0.0695			0.0783			0.0601	
MGESLFKGPRDYNPISSSICHLTNESDGHTTSLYGIGFGPFIITNKHLFRRNNGTLVVQSLHGVFKVKDTTTLQQHLVDGRDMIIIRMPKDFPPFPQKLKFREPQREERICLVTTNFQTKSMSSMVSDTSCTFPSGDGIFWKHWIQTKDGQCGSPLVSTRDGFIVGIHSASNFTNTNNYFTSVPKNFMELLTNQEAQQWVSGWRLNADNVLWGGHKVFMVKPEEPFQPVKEATQL [S209N]		0.0835			0.07	0.0522	0.0726		0.0549
MGESLFKGPRDYNPISSSICHLTNESDGHTTSLYGIGFGPFIITNKHLFRRNNGTLVVQSLHGVFKVKDTTTLQQHLVDGRDMIIIRMPKDFPPFPQKLKFREPQREERICLVTTNFQTKSMSSMVSDTSCTFPSGDGIFWKHWIQTKDGQCGSPLVSTRDGFIVGIHSASNFTNTNNYFTSVPKNFMELLTNQEAQQWVSGWRLNADRVLWGGHKVFMVKPEEPFQPVKEATQL [S209R]	0.0651				0.0645		0.053		
MGESLFKGPRDYNPISSSICHLTNESDGHTTSLYGIGFGPFIITNKHLFRRNNGTLVVQSLHGVFKVKDTTTLQQHLVDGRDMIIIRMPKDFPPFPQKLKFREPQREERICLVTTNFQTKSMSSMVSDTSCTFPSGDGIFWKHWIQTKDGQCGSPLVSTRDGFIVGIHSASNFTNTNNYFTSVPKNFMELLTNQEAQQWVSGWRLNADSELWGGHKVFMVKPEEPFQPVKEATQL [V210E]	0.0587	0.0613			0.0547	0.0553	0.0542		
MGESLFKGPRDYNPISSSICHLTNESDGHTTSLYGIGFGPFIITNKHLFRRNNGTLVVQSLHGVFKVKDTTTLQQHLVDGRDMIIIRMPKDFPPFPQKLKFREPQREERICLVTTNFQTKSMSSMVSDTSCTFPSGDGIFWKHWIQTKDGQCGSPLVSTRDGFIVGIHSASNFTNTNNYFTSVPKNFMELLTNQEAQQWVSGWRLNADSPLWGGHKVFMVKPEEPFQPVKEATQL [V210P]					0.0705		0.0623		
